Experimental data taken from patent publication US20180230235A1 (Affibody, published 2018).

B1: Z06936 ABD fusion protein (designed binder, not shown: large carriers; small tags and cut ends)
chain: VDAKYAKENLFAGWEIDDLPNLTEDQRNAFIYKLWDDPSQSSELLSEAKKLNDSQAPK
notes: periplasmic sample
B2: Z06996 ABD fusion protein (designed binder, not shown: large carriers; small tags and cut ends)
chain: VDAKYAKEHLFAGWEIEDLPNLTIDQRNAFIYKLWDDPSQSSELLSEAKKLNDSQAPK
notes: periplasmic sample
B3: Z07072 ABD fusion protein (designed binder, not shown: large carriers; small tags and cut ends)
chain: VDAKYAKEQLFAGWEIDDLPNLTDFQRNAFIYKLWDDPSQSSELLSEAKKLNDSQAPK
notes: periplasmic sample
B4: Z06920 ABD fusion protein (designed binder, not shown: large carriers; small tags and cut ends)
chain: VDAKYAKEHLFAGWEITDLPNLTDQQRDAFIYKLWDDPSQSSELLSEAKKLNDSQAPK
notes: periplasmic sample
B5: Z06942 ABD fusion protein (designed binder, not shown: large carriers; small tags and cut ends)
chain: VDAKYAKENLFAGWEISDLPNLTDYQRNAFIYKLWDDPSQSSELLSEAKKLNDSQAPK
notes: periplasmic sample
B6: Z06971 ABD fusion protein (designed binder, not shown: large carriers; small tags and cut ends)
chain: VDAKYAKENLFAGWEISDLPNLTQQQRHAFIYKLWDDPSQSSELLSEAKKLNDSQAPK
notes: periplasmic sample
B7: Z07012 ABD fusion protein (designed binder, not shown: large carriers; small tags and cut ends)
chain: VDAKYAKENIFAGWEIDDLPNLTEAQRHAFIYKLWDDPSQSSELLSEAKKLNDSQAPK
notes: periplasmic sample
B8: Z06962 ABD fusion protein (designed binder, not shown: large carriers; small tags and cut ends)
chain: VDAKYAKENLFAGWEITDLPNLTIQQRNAFIYKLWDDPSQSSELLSEAKKLNDSQAPK
notes: periplasmic sample
B9: Z06934 ABD fusion protein (designed binder, not shown: large carriers; small tags and cut ends)
chain: VDAKYAKENIFAGWEIDDLPNLTESQRHAFIYKLWDDPSQSSELLSEAKKLNDSQAPK
notes: periplasmic sample
B10: Z06960 ABD fusion protein (designed binder, not shown: large carriers; small tags and cut ends)
chain: VDAKYAKENIFAGWEISDLPNLTEHQRNAFIYKLWDDPSQSSELLSEAKKLNDSQAPK
notes: periplasmic sample
B11: Z07052 ABD fusion protein (designed binder, not shown: large carriers; small tags and cut ends)
chain: VDAKYAKENIFAGWEIEDLPNLTDNQRDAFIYKLWDDPSQSSELLSEAKKLNDSQAPK
notes: periplasmic sample
B12: Z06984 ABD fusion protein (designed binder, not shown: large carriers; small tags and cut ends)
chain: VDAKYAKENIFAGWEIDDLPNLTTYQRNAFIYKLWDDPSQSSELLSEAKKLNDSQAPK
notes: periplasmic sample
B13: Z07081 ABD fusion protein (designed binder, not shown: large carriers; small tags and cut ends)
chain: VDAKYAKENIFAGWEIEDLPNLTDQQRNAFIYKLWDDPSQSSELLSEAKKLNDSQAPK
notes: periplasmic sample
B14: Z06961 ABD fusion protein (designed binder, not shown: large carriers; small tags and cut ends)
chain: VDAKYAKENLFAGWEIGDLPNLTEQQRHAFIYKLWDDPSQSSELLSEAKKLNDSQAPK
notes: periplasmic sample
B15: Z07000 ABD fusion protein (designed binder, not shown: large carriers; small tags and cut ends)
chain: VDAKYAKENWAAGWEISDLPNLTDFQRNAFIYKLWDDPSQSSELLSEAKKLNDSQAPK
notes: periplasmic sample
B16: Z07010 ABD fusion protein (designed binder, not shown: large carriers; small tags and cut ends)
chain: VDAKYAKENIFAGWEIGDLPNLTEDQRNAFIYKLWDDPSQSSELLSEAKKLNDSQAPK
notes: periplasmic sample
B17: Z06924 ABD fusion protein (designed binder, not shown: large carriers; small tags and cut ends)
chain: VDAKYAKEHIFAGWEITDLPNLTDDQRNAFIYKLWDDPSQSSELLSEAKKLNDSQAPK
notes: periplasmic sample
B18: Z06923 ABD fusion protein (designed binder, not shown: large carriers; small tags and cut ends)
chain: VDAKYAKEQLFAGWEISDLPNLTEQQRHAFIYKLWDDPSQSSELLSEAKKLNDSQAPK
notes: periplasmic sample
B19: Z06999 ABD fusion protein (designed binder, not shown: large carriers; small tags and cut ends)
chain: VDAKYAKEHLFAGWEITDLPNLTEQQRNAFIYKLWDDPSQSSELLSEAKKLNDSQAPK
notes: periplasmic sample
B20: Z06977 ABD fusion protein (designed binder, not shown: large carriers; small tags and cut ends)
chain: VDAKYAKENIFAGWEIEDLPNLTDHQRDAFIYKLWDDPSQSSELLSEAKKLNDSQAPK
notes: periplasmic sample
B21: Z06985 ABD fusion protein (designed binder, not shown: large carriers; small tags and cut ends)
chain: VDAKYAKENIFAGWEIEDLPNLTDHQRNAFIYKLWDDPSQSSELLSEAKKLNDSQAPK
notes: periplasmic sample
B22: Z07022 ABD fusion protein (designed binder, not shown: large carriers; small tags and cut ends)
chain: VDAKYAKEHIFAGWEIEDLPNLTESQRNAFIYKLWDDPSQSSELLSEAKKLNDSQAPK
notes: periplasmic sample
B23: Z07077 ABD fusion protein (designed binder, not shown: large carriers; small tags and cut ends)
chain: VDAKYAKENLFAGWEIGDLPNLTEDQRNAFIYKLWDDPSQSSELLSEAKKLNDSQAPK
notes: periplasmic sample
B24: Z06933 ABD fusion protein (designed binder, not shown: large carriers; small tags and cut ends)
chain: VDAKYAKEDLFAGWEIDDLPNLTEYQRNAFIYKLWDDPSQSSELLSEAKKLNDSQAPK
notes: periplasmic sample
B25: Z06932 ABD fusion protein (designed binder, not shown: large carriers; small tags and cut ends)
chain: VDAKYAKENIFAGWEISDLPNLTVAQRHAFIYKLWDDPSQSSELLSEAKKLNDSQAPK
notes: periplasmic sample
B26: Z06959 ABD fusion protein (designed binder, not shown: large carriers; small tags and cut ends)
chain: VDAKYAKENLFAGWEITDLPNLTIEQRNAFIYKLWDDPSQSSELLSEAKKLNDSQAPK
notes: periplasmic sample
B27: Z06976 ABD fusion protein (designed binder, not shown: large carriers; small tags and cut ends)
chain: VDAKYAKENIFAGWEIDDLPNLTDEQRNAFIYKLWDDPSQSSELLSEAKKLNDSQAPK
notes: periplasmic sample
B28: Z06967 ABD fusion protein (designed binder, not shown: large carriers; small tags and cut ends)
chain: VDAKYAKENLFAGWEIADLPNLTDHQRNAFIYKLWDDPSQSSELLSEAKKLNDSQAPK
notes: periplasmic sample
B29: Z06994 ABD fusion protein (designed binder, not shown: large carriers; small tags and cut ends)
chain: VDAKYAKEHLFAGWEIDELPNLTEQQRHAFIYKLWDDPSQSSELLSEAKKLNDSQAPK
notes: periplasmic sample
B30: Z06993 ABD fusion protein (designed binder, not shown: large carriers; small tags and cut ends)
chain: VDAKYAKENIFAGWEIRDLPNLTDYQRNAFIYKLWDDPSQSSELLSEAKKLNDSQAPK
notes: periplasmic sample
B31: Z07074 ABD fusion protein (designed binder, not shown: large carriers; small tags and cut ends)
chain: VDAKYAKENIFAGWEIEELPNLTEFQRNAFIYKLWDDPSQSSELLSEAKKLNDSQAPK
notes: periplasmic sample
B32: Z06986 ABD fusion protein (designed binder, not shown: large carriers; small tags and cut ends)
chain: VDAKYAKENLFAGWEINDLPNLTEYQRNAFIYKLWDDPSQSSELLSEAKKLNDSQAPK
notes: periplasmic sample
B33: Z07066 ABD fusion protein (designed binder, not shown: large carriers; small tags and cut ends)
chain: VDAKYAKENWAAGWEIDDLPNLTIDQRNAFIYKLWDDPSQSSELLSEAKKLNDSQAPK
notes: periplasmic sample
B34: Z06925 ABD fusion protein (designed binder, not shown: large carriers; small tags and cut ends)
chain: VDAKYAKENLFAGWEIDDLPNLTWQQRHAFIYKLWDDPSQSSELLSEAKKLNDSQAPK
notes: periplasmic sample
B35: Z07013 ABD fusion protein (designed binder, not shown: large carriers; small tags and cut ends)
chain: VDAKYAKEQLFAGWEIDDLPNLTEFQRNAFIYKLWDDPSQSSELLSEAKKLNDSQAPK
notes: periplasmic sample
B36: Z06954 ABD fusion protein (designed binder, not shown: large carriers; small tags and cut ends)
chain: VDAKYAKENIFAGWEIEDLPNLTDGQRNAFIYKLWDDPSQSSELLSEAKKLNDSQAPK
notes: periplasmic sample
B37: Z06931 ABD fusion protein (designed binder, not shown: large carriers; small tags and cut ends)
chain: VDAKYAKEHLFAGWEITDLPNLTIDQRNAFIYKLWDDPSQSSELLSEAKKLNDSQAPK
notes: periplasmic sample
B38: Z07024 ABD fusion protein (designed binder, not shown: large carriers; small tags and cut ends)
chain: VDAKYAKENIFAGWEIDDLPNLTAHQRDAFIYKLWDDPSQSSELLSEAKKLNDSQAPK
notes: periplasmic sample
B39: Z06919 ABD fusion protein (designed binder, not shown: large carriers; small tags and cut ends)
chain: VDAKYAKEHLFAGWEIEDLPNLTEYQRNAFIYKLWDDPSQSSELLSEAKKLNDSQAPK
notes: periplasmic sample

Assays:
[1] = target: T1, Human CAIX (carbonic anhydrase IX) (human, UniProt Q16790 59-414); experiment: ELISA titration of biotinylated human CAIX on captured Z-ABD fusion
[2] = target: T1, Human CAIX (carbonic anhydrase IX); experiment: ELISA screening, captured Z-ABD fusion, biotinylated human CAIX 0.25 ug/ml

Binder	Kd [1] [nM]	absorbance at 450 nm [2] [AU]
B1	1.8	> 1
B2	10	> 1
B3	8.4	> 1
B4	8	> 1
B5	1.9	> 1
B6	5.9	> 1
B7	4	> 1
B8	2.9	> 1
B9	5.8	> 1
B10	3.9	> 1
B11	9.2	> 1
B12	2.9	> 1
B13	4.3	> 1
B14	2.7	> 1
B15	5.8	> 1
B16	3.5	> 1
B17	6.7	> 1
B18	8.6	> 1
B19	2.7	> 1
B20	4.1	> 1

Binder	Kd [1] [nM]	absorbance at 450 nm [2] [AU]
B21	3.7	> 1
B22	11	> 1
B23	3.6	> 1
B24	4.3	> 1
B25	7.9	> 1
B26	2.7	> 1
B27	2.5	> 1
B28	9	> 1
B29	15	> 1
B30	6.5	> 1
B31	6.8	> 1
B32	2.1	> 1
B33	8.3	> 1
B34	9.9	> 1
B35	4.4	> 1
B36	3.4	> 1
B37	6.1	> 1
B38	11	> 1
B39	2.9	> 1
